Measured values taken from patent publication US20240262915A1 (NANJING SANHOME PHARMACEUTICAL, published 2024).

T1: full-length TIGIT on hTIGIT-CHO-K1 cells (human, UniProt Q495A1 22-244)
T1 construct: CHO-K1 cells stably transfected with pTargeT-TIGIT; also called TIGIT on cell surface
T1 sequence: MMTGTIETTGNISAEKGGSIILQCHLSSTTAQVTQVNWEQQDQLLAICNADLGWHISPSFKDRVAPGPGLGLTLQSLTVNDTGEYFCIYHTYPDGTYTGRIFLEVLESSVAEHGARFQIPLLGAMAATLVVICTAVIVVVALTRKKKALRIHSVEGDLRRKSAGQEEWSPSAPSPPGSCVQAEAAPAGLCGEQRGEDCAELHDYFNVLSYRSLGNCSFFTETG

T2: TIGIT-his (extracellular region of human TIGIT protein fused with his) (human, UniProt Q495A1 22-141)
T2 construct: also called antigen TIGIT-his
T2 sequence: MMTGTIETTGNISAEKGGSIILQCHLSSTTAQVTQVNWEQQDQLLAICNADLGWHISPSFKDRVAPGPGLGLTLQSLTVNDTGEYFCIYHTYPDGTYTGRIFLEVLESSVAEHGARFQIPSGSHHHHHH

T3: TIGIT-mFc (extracellular region of human TIGIT with mIgG1-Fc tag) (human)
T3 construct: A bought TIGIT-mFc (Acro Biosystems TIT-H5253) is used for immunization; also called recombinant humanized TIGIT-mFc
T3 chain: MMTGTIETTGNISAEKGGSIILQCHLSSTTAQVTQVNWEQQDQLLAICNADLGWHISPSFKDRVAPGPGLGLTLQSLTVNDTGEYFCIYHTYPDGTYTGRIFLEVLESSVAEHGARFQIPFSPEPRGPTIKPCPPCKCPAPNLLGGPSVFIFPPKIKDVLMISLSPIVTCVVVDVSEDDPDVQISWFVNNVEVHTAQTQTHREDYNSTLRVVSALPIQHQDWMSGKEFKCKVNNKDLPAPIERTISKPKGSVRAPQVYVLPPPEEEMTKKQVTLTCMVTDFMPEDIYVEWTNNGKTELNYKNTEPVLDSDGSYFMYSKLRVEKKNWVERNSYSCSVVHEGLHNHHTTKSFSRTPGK

B1: HuPL721-T2353-ScFv (bispecific antibody, human IgG4, kappa)
heavy: QVQLQESGPGLVKPSQTLSLTCTVSGDSITSGYWNWIRQHPGKGLEYIGYISYTGSTYYNLSLKSRVTISRDTSKNQFSLKLSSVTAADTAVYYCARYILWLRHFDYWGQGTLVTVSSASTKGPSVFPLAPCSRSTSESTAALGCLVKDYFPEPVTVSWNSGALTSGVHTFPAVLQSSGLYSLSSVVTVPSSSLGTKTYTCNVDHKPSNTKVDKRV[gap - human IgG4 Fc with changes]GGGGSGGGGSEVQLVESGGGLVQPGGSLRLSCAASGFTFSDHWMSWVRQAPGKCMEWIGNIQYDGSYTNYAPSLKNRFTISRDNAKNSLYLQMNSLRAEDTATYYCTRGHFRITMASMGASASVYWGQGTMVTVSSGGGGSGGGGSGGGGSGGGGSDIQMTQSPSSLSASVGDRVTITCRTSQDIGNSLRWFQQKPGKAPKLLIHGATNLANGVPSRFSGSGSGTDFTLTISSLQPEDFATYYCLQHNEYPLTFGCGTKLEIK
light: DIVMTQSPDSLAVSLGERATISCKSSQSLLYSSNQKNSLAWYQQKPGQPPKLLIYWASTRESGVPDRFSGSGSGTDFTLTISSLQAEDVAVYYCQQYYGYPLTFGGGTKLEIKRTVAAPSVFIFPPSDEQLKSGTASVVCLLNNFYPREAKVQWKVDNALQSGNSQESVTEQDSKDSTYSLSSTLTLSKADYEKHKVYACEVTHQGLSSPVTKSFNRGEC
B2: HuPL743-T2353-ScFv (bispecific antibody, human IgG4, kappa)
heavy: QVQLQESGPGLVKPSQTLSLTCTVSGDSITSGYWNWIRQHPGKGLEYMGYISYTGSTYYNLSLKSRITISRDTSKNQYSLKLSSVTAADTAVYYCARYILWLRHFDYWGQGTLLTVSSASTKGPSVFPLAPCSRSTSESTAALGCLVKDYFPEPVTVSWNSGALTSGVHTFPAVLQSSGLYSLSSVVTVPSSSLGTKTYTCNVDHKPSNTKVDKRV[gap - human IgG4 Fc with changes]GGGGSGGGGSEVQLVESGGGLVQPGGSLRLSCAASGFTFSDHWMSWVRQAPGKCMEWIGNIQYDGSYTNYAPSLKNRFTISRDNAKNSLYLQMNSLRAEDTATYYCTRGHFRITMASMGASASVYWGQGTMVTVSSGGGGSGGGGSGGGGSGGGGSDIQMTQSPSSLSASVGDRVTITCRTSQDIGNSLRWFQQKPGKAPKLLIHGATNLANGVPSRFSGSGSGTDFTLTISSLQPEDFATYYCLQHNEYPLTFGCGTKLEIK
light: B1 light with A19V, I21M, L84V

Columns and labels:
[1] = target: T4, human PD-L1 on hPD-L1-CHO-K1 cells (human, UniProt Q9NZQ7); assay: FACS on hPD-L1-CHO-K1 cells
T4 construct: whole, on cells; The making of this cell line is not described

[2] = target: T1, full-length TIGIT on hTIGIT-CHO-K1 cells; assay: FACS on hTIGIT-CHO-K1 cells
PD-L1-his = target: T5, PD-L1-his (human, UniProt Q9NZQ7 in part, limits assumed); assay: BLI, Fortebio Octet RED96, antibody on AHC sensor, PD-L1-his in solution
Chain of PD-L1-his (Q9NZQ7 19-238 limits assumed): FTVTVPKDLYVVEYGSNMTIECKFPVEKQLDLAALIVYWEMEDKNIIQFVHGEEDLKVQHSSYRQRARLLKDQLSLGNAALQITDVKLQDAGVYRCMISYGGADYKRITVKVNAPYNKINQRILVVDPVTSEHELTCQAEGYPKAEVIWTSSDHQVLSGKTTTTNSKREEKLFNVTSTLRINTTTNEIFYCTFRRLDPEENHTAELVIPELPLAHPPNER
T5 construct: also called human PD-L1 protein

[3] = target: T2, TIGIT-his (extracellular region of …); assay: BLI, Fortebio Octet RED96, antibody on AHC sensor, TIGIT-his in solution
[4] = target: T4, human PD-L1 on hPD-L1-CHO-K1 cells; assay: FACS, blocking of PD-1-mFc binding to hPD-L1-CHO-K1 cells (competitor PD-1-mFc)
T4 sequence (Q9NZQ7 19-290): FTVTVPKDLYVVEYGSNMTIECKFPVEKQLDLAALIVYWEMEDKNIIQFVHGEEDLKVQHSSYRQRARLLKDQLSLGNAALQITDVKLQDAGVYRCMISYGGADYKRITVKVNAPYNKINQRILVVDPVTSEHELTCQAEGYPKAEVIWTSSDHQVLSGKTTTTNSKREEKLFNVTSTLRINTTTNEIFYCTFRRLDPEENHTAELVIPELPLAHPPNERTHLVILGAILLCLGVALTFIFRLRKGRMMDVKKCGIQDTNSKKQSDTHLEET

[5] = target: T3, TIGIT-mFc (extracellular region of …); assay: FACS, blocking of TIGIT-mFc binding to cells (TIGIT/CD155; cells printed as hTIGIT-CHO-K1)

| Binder | EC50 [1] [nM] | EC50 [2] [nM] | Kd (PD-L1-his) [nM] | koff (PD-L1-his) [s⁻¹] | kon (PD-L1-his) [M⁻¹ s⁻¹] | Kd [3] [nM] | koff [3] [s⁻¹] | kon [3] [M⁻¹ s⁻¹] | IC50 [4] [nM] | IC50 [5] [nM] |
| --- | --- | --- | --- | --- | --- | --- | --- | --- | --- | --- |
| B1 | 0.715 | 0.612 | 2.67 | 0.000472 | 177000 | 2.49 | 0.00248 | 996000 | 3.34 | 2.13 |
| B2 | 0.82 | – | – | – | – | – | – | – | – | – |

Residue numbers refer to the chain shown, from its start.
